# Reference: the supplement of paper PMC8728848
# Some of the results follow.
# Experiments:
# Assay in all cases: glycan array binding signal (z-score within array); higher = stronger binding
# Conditions in all cases: glycan notation: IUPAC condensed, linker removed
# [1] = molecular target: Neu5Ac(a2-3)Gal(b1-4)GlcNAc(b1-6)GalNAc
# Summary of the method: (§1)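 Glycan array binding is given as a within-array Z-score, which can be read as non-binding when negative. The arrays, 3228 of them, came from the Consortium for Functional Glycomics database and were retained only where the protein sequence was available. Z-scores were averaged across arrays of the same protein sequence at different concentrations or buffers and across linkers.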
# [2] = molecular target: Neu5Ac(a2-3)Gal(b1-4)GlcNAc(b1-6)[Gal(b1-3)]GalNAc
# Summary of the method: as §1
# [3] = molecular target: Neu5Ac(a2-3)Gal(b1-4)GlcNAc(b1-6)[Neu5Ac(a2-3)Gal(b1-3)]GalNAc
# Summary of the method: as §1
# [4] = molecular target: Neu5Ac(a2-3)Gal(b1-4)GlcNAc6S
# Summary of the method: as §1
# [5] = molecular target: Neu5Ac(a2-3)Gal(b1-4)[Fuc(a1-3)]GlcNAc
# Summary of the method: as §1
# [6] = molecular target: Neu5Ac(a2-3)Gal(b1-4)[Fuc(a1-3)]GlcNAc(b1-2)Man
# Summary of the method: as §1
# [7] = molecular target: Neu5Ac(a2-3)Gal(b1-4)[Fuc(a1-3)]GlcNAc(b1-3)Gal
# Summary of the method: as §1
# [8] = molecular target: Neu5Ac(a2-3)Gal(b1-4)[Fuc(a1-3)]GlcNAc(b1-3)Gal(b1-4)GlcNAc
# Summary of the method: as §1
# [9] = molecular target: Neu5Ac(a2-3)Gal(b1-4)[Fuc(a1-3)]GlcNAc(b1-3)Gal(b1-4)[Fuc(a1-3)]GlcNAc(b1-3)Gal(b1-4)[Fuc(a1-3)]GlcNAc
# Summary of the method: as §1
# [10] = molecular target: Neu5Ac(a2-3)Gal(b1-4)[Fuc(a1-3)]GlcNAc(b1-3)GalNAc
# Summary of the method: as §1
# [11] = molecular target: Neu5Ac(a2-3)Gal(b1-4)[Fuc(a1-3)]GlcNAc(b1-6)[Gal(b1-3)]GalNAc
# Summary of the method: as §1
# [12] = molecular target: Neu5Ac(a2-3)Gal(b1-4)[Fuc(a1-3)]GlcNAc(b1-6)[Neu5Ac(a2-3)Gal(b1-3)]GalNAc
# Summary of the method: as §1
# [13] = molecular target: Neu5Ac(a2-3)Gal(b1-4)[Fuc(a1-3)]GlcNAc6S
# Summary of the method: as §1
# [14] = molecular target: Neu5Ac(a2-3)Gal6S(b1-4)GlcNAc
# Summary of the method: as §1
# [15] = molecular target: Neu5Ac(a2-3)Gal6S(b1-4)[Fuc(a1-3)]GlcNAc
# Summary of the method: as §1
# Neu5Ac(a2-3)GalNAc = molecular target: Neu5Ac(a2-3)GalNAc
# Summary of the method: as §1
# [16] = molecular target: Neu5Ac(a2-3)GalNAc(b1-4)GlcNAc
# Summary of the method: as §1
# [17] = molecular target: Neu5Ac(a2-3)[GalNAc(b1-4)]Gal(b1-4)Glc
# Summary of the method: as §1
# [18] = molecular target: Neu5Ac(a2-3)[GalNAc(b1-4)]Gal(b1-4)GlcNAc
# Summary of the method: as §1
# [19] = molecular target: Neu5Ac(a2-3)[GalNAc(b1-4)]Gal(b1-4)GlcNAc(b1-3)GalNAc
# Summary of the method: as §1
# [20] = molecular target: Neu5Ac(a2-3)[Neu5Ac(a2-6)]GalNAc
# Summary of the method: as §1
# Neu5Ac(a2-6)Gal = molecular target: Neu5Ac(a2-6)Gal
# Summary of the method: as §1
# [21] = molecular target: Neu5Ac(a2-6)Gal(b1-3)GlcNAc(b1-3)[Gal(b1-4)GlcNAc(b1-6)]Gal(b1-4)Glc
# Summary of the method: as §1
# Neu5Ac(a2-6)Gal(b1-4)Glc = molecular target: Neu5Ac(a2-6)Gal(b1-4)Glc
# Summary of the method: as §1
# [22] = molecular target: Neu5Ac(a2-6)Gal(b1-4)GlcNAc
# Summary of the method: as §1
# [23] = molecular target: Neu5Ac(a2-6)Gal(b1-4)GlcNAc(b1-2)Man
# Summary of the method: as §1
# [24] = molecular target: Neu5Ac(a2-6)Gal(b1-4)GlcNAc(b1-2)Man(a1-3)Man(b1-4)GlcNAc(b1-4)GlcNAc
# Summary of the method: as §1
# [25] = molecular target: Neu5Ac(a2-6)Gal(b1-4)GlcNAc(b1-2)Man(a1-3)[Gal(b1-4)GlcNAc(b1-2)Man(a1-6)]Man(b1-4)GlcNAc(b1-4)GlcNAc
# Summary of the method: as §1
# [26] = molecular target: Neu5Ac(a2-6)Gal(b1-4)GlcNAc(b1-2)Man(a1-3)[GlcNAc(b1-2)Man(a1-6)]Man(b1-4)GlcNAc(b1-4)GlcNAc
# Summary of the method: as §1
# [27] = molecular target: Neu5Ac(a2-6)Gal(b1-4)GlcNAc(b1-2)Man(a1-3)[GlcNAc(b1-4)][Neu5Ac(a2-6)Gal(b1-4)GlcNAc(b1-2)Man(a1-6)]Man(b1-4)GlcNAc(b1-4)GlcNAc
# Summary of the method: as §1
binder,measurement,setting,value
SialidaseA (Arthrobacter ureafaciens) (protein) MRSNSTSAPSLVRRAATGVLTCAVSIGLLAGLGLPAQAAPTPPNSPTLPPGSFSETNLAADRTAANFFYRIPALTYLGNDVVLAAWDGRPGSAADAPNPNSIVQRRSTDGGKTWGPVQVIAAGHVADASGPRYGYSDPSYIYDAEANKVFAFFVYSKDQGFGGSQFGNDDADRNVISSAVIESSDAGVTWSQPRLITSVTKPGTSKTNPAAGDVRSNFASSGEGIQLKYGPHKGRLIQQYAGDVRQADGSNKIQAYSVYSDDHGVTWHKGANVGDRMDENKTVELSDGRVLLNSRDNANRGYRKVAVSTDGGATYGPVSQDTELPDPANNGAIARMFPNAAQGSADAKKLIFTNANSKTGRENVSARVSCDDGETWPGVRTIRSGFSAYSTVTRLADGKFGVLYEGNYTDNMPFATFDDAWLNYVCAPLAVPAVNIAPSATQEVPVTVTNQEATTLSGATATVYTPSGWSATTVPVPDVAPGASVTVTVALTAPADASGPRSLNAAFTTADGRVSQFTFTATTPVAPQVGLTITGSAPARDVAANPYQAGDVLGYTLNVKSTANVAANSVPLTGTFDSGFLPPAAPNCRYNNLAAGASYNCTTAKHTITAADMERGYFVPEATFSITSTTTPSLTKTVQFTGAAVALRDGLISADISGARTDVGRDLATRPYAAGELVPYAFTVKNTSPFVEQVVPTAGNFSPFLPAGAGNCRYLSLPAGQSYECATPRHAVTAEEVEQGFFVPDTTWEVSAAGQSTRTYRINGGEVDLLVRDAALSATVVAEWKDADGDRFASAGDPVTFTYTVGNAGNVALTGLEAPDAGISLPFLAPGDTATATREHVLTAADVAGGSLAASAFEATARNGSKEVTATAEGQPLELKVQPAQPSKEPELTVQDLEDQTPPFDLGTAFKYRTGQKVSLAGLEYGQWYYVYLNKTGYRLGWMFPTTGDTVEFILPPEVRNGRDDVVVLDKDGRRVSFDRLQVTPKGEKI,glycan array binding signal (z-score),[1],-0.046
same,glycan array binding signal (z-score),[2],-0.308
same,glycan array binding signal (z-score),[3],1.78
same,glycan array binding signal (z-score),[4],2.24
same,glycan array binding signal (z-score),[5],0.484
same,glycan array binding signal (z-score),[6],1.2
same,glycan array binding signal (z-score),[7],1.35
same,glycan array binding signal (z-score),[8],2.56
same,glycan array binding signal (z-score),[9],1.29
same,glycan array binding signal (z-score),[10],1.91
same,glycan array binding signal (z-score),[11],0.934
same,glycan array binding signal (z-score),[12],0.718
same,glycan array binding signal (z-score),[13],2.04
same,glycan array binding signal (z-score),[14],2.1
same,glycan array binding signal (z-score),[15],0.187
same,glycan array binding signal (z-score),Neu5Ac(a2-3)GalNAc,0.621
same,glycan array binding signal (z-score),[16],0.302
same,glycan array binding signal (z-score),[17],1.29
same,glycan array binding signal (z-score),[18],0.486
same,glycan array binding signal (z-score),[19],0.725
same,glycan array binding signal (z-score),[20],1.34
same,glycan array binding signal (z-score),Neu5Ac(a2-6)Gal,1.04
same,glycan array binding signal (z-score),[21],-0.724
same,glycan array binding signal (z-score),Neu5Ac(a2-6)Gal(b1-4)Glc,0.53
same,glycan array binding signal (z-score),[22],1.64
same,glycan array binding signal (z-score),[23],0.518
same,glycan array binding signal (z-score),[24],3.4
same,glycan array binding signal (z-score),[25],0.214
same,glycan array binding signal (z-score),[26],2.79
same,glycan array binding signal (z-score),[27],2.08
